The campaign covered roughly 48,000 compounds. About 550 (1.1%) were called active. About 4% were inconclusive and are not listed. Cut-off read from the data, not from the text of the source: active = potency below about 15 µM; inconclusive = mostly about 16 µM to 33 µM; inactive = weaker than that. Some of the results follow.
molecular target: Lysosomal acid glucosylceramidase (Homo sapiens) (UniProt P04062); test: Glucocerebrosidase; conditions: purified enzyme, resorufin glucoside fluorescence (screen aimed at inhibitors), 20 min;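 note: the screen sought inhibitors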
Sequence of UniProt P04062 (P04062 whole entry, looked up): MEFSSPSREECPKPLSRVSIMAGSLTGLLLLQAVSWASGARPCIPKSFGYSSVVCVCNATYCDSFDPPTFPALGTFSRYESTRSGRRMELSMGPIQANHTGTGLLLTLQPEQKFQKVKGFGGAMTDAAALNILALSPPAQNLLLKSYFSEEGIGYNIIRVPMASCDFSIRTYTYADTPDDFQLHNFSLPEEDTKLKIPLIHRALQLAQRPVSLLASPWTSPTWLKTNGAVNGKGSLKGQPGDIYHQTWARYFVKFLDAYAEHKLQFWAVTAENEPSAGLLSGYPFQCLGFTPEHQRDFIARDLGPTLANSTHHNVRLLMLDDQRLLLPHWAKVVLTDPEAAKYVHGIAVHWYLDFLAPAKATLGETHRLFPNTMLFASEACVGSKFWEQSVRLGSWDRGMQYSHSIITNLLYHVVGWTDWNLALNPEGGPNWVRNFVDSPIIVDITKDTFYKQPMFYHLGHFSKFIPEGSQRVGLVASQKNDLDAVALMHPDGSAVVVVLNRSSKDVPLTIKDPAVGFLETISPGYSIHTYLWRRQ
Method in brief: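 Wild-type enzyme at 0.2 nM final in 50mM citric acid/KH2PO4, 10mM sodium taurocholate, 0.01% tween-20, pH 5.9, with resorufin beta-D-glucopyranoside at 30 uM final. Compounds titrated, 20 min at RT, red fluorescence read; AC50 from titration.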
Potency is the fitted concentration of half-maximal effect.

Potency, inactive:
COc1ccc(C(=O)NCc2nnc(SCC(=O)Nc3cc(C)cc(C)c3)o2)cc1OC > 76.9 µM
CCOc1ccccc1-n1nnnc1SCC(=O)Nc1cc2oc3ccccc3c2cc1OC > 76.9 µM
c1ccc(-c2noc(-c3cccc4ccccc34)n2)nc1 > 76.9 µM
CCCc1c(O)nc(SC2CC(=O)N(c3cc(OC)ccc3OC)C2=O)[nH]c1=O (configuration not stated) > 76.9 µM
CCC(C)n1cnc2c(c1=O)c1nc3ccccc3nc1n2Cc1ccccc1OC (configuration not stated)
COc1cc(OC)cc(-c2nnc(Nc3nc4c(F)cccc4s3)o2)c1 > 76.9 µM
COc1cc(C)c(Br)cc1S(=O)(=O)N1CCCC1 > 76.9 µM
CCOC(=O)N1CCN(Cc2nc3c(c(=O)[nH]c(=O)n3C)n2Cc2ccccc2C)CC1 > 76.9 µM
O=C(CCn1c(=S)[nH]c2ccccc2c1=O)NCC1CCCO1 (configuration not stated) > 76.9 µM
Cc1ccc(Cn2c(CN3CCN(C(=O)c4ccco4)CC3)nc3c2c(=O)n(C)c(=O)n3C)cc1 > 76.9 µM
COc1ccccc1NC(=O)CSc1nc(O)cc(=O)[nH]1 > 76.9 µM
Cn1c(SCC(=O)c2ccccc2)nc2cccnc21 > 76.9 µM
COC(=O)[C@H](C)NC(=O)Nc1ccc(S(N)(=O)=O)cc1 > 76.9 µM
COC(=O)c1ccc(-n2nnnc2SCC(=O)Nc2cc(OC)ccc2OC)cc1 > 76.9 µM
Cc1csc(NC(=O)Nc2ccc(Cl)cc2)n1 > 76.9 µM
Cc1cc(C(=O)Nc2c(F)cc(F)cc2Br)no1 > 76.9 µM
c1nc(COc2nsnc2N2CCOCC2)cs1 > 76.9 µM
O=c1c(/C=N/O)coc2ccc3ccccc3c12 > 76.9 µM
CC1CCCC(C)N1CCNC(=O)Cn1nc(-c2ccccc2)ccc1=O (configuration not stated) > 76.9 µM
COc1ccc(OC)c(S(=O)(=O)Nc2ccc(CC(=O)O)cc2)c1 > 76.9 µM
CCOC(=O)Nc1ccc(S(=O)(=O)N2CCOCC2)cc1 > 76.9 µM
COCCN1CN=C(Nc2nc(C)c3ccc(C)cc3n2)NC1 > 76.9 µM
CCN(CC(=O)Nc1ccc2c(c1)OCCO2)C(=O)c1cccc(S(=O)(=O)N2CCOCC2)c1 > 76.9 µM
c1ccc2c3nnc4n(c-3nc2c1)CCCS4 > 76.9 µM
CCC(Sc1nc2cc(OC)c(OC)cc2c2nc(C)nn12)C(=O)NCc1ccco1 (configuration not stated) > 76.9 µM
COc1cc(S(=O)(=O)N(Cc2cccs2)CC2CCCO2)ccc1-n1cnnn1 (configuration not stated) > 76.9 µM
CC(C)C(OC(=O)c1ccco1)C(=O)NCc1ccco1 (configuration not stated) > 76.9 µM
Cc1ccc2c(C)nc(Nc3nc(CSc4nnnn4-c4ccccc4)cc(=O)[nH]3)nc2c1 > 76.9 µM
CSCCc1nc(SCC(=O)Nc2nnc(C)s2)[nH]c1C > 76.9 µM
Oc1ccc(N2CCN(c3ncnc4sc5c(c34)CCC5)CC2)cc1 > 76.9 µM
CC(NC(=O)C(c1ccccc1)c1ccccc1)C(=O)O (configuration not stated) > 76.9 µM
Cn1c(=O)c2c(nc(SCC(=O)N3CCCc4ccccc43)n2C)n(C)c1=O > 76.9 µM
Cc1ccccc1-c1nc(Cc2ccc(Cl)cc2)no1 > 76.9 µM
O=c1c2oc3ccccc3c2ncn1Cc1ccccc1Cl > 76.9 µM
COc1ccc(OC)c(-c2nnc(SCC(=O)N3CCCc4ccccc43)o2)c1 > 76.9 µM
CCC(C)N(C(=O)COC(=O)c1cn(CC)c2nc(C)ccc2c1=O)C1CCS(=O)(=O)C1 (configuration not stated) > 76.9 µM
O=C(c1cccs1)N1CCC(c2nc3c(nnn3Cc3ccccc3)c(=O)[nH]2)CC1 > 76.9 µM
CCOC(=O)N1CCC(NC(=O)CCC(=O)N2CC(C)Oc3ccccc32)CC1 (configuration not stated) > 76.9 µM
COc1cc(C(=O)N(Cc2ccc(N(C)C)cc2)C2CCS(=O)(=O)C2)cc(OC)c1OC (configuration not stated) > 76.9 µM
Cc1cccc(N2CCN(C(=O)c3ccc(Cl)c(S(=O)(=O)NCc4ccco4)c3)CC2)c1C > 76.9 µM
Nn1c(COc2ccccc2)nnc1SC(F)F > 76.9 µM
COc1cccc2cc(C(=O)N3CCN(C(=O)c4ccco4)CC3)c(=O)oc12 > 76.9 µM
COc1cc(OC)cc(C(=O)N2CCN(C(=O)c3cccc(F)c3)CC2)c1 > 76.9 µM
COc1cccc(Nc2ncccc2C(=O)NCc2ccccc2)c1
COCCC(=O)N(Cc1ccc2c(c1)OCO2)C(C(=O)NC1CCCCC1)c1ccncc1 (configuration not stated) > 76.9 µM
C=CCc1c(C)[nH]c2ccc(C)cc2c1=O > 76.9 µM
Cc1ccc2[nH]c(=O)c(CN(Cc3cccnc3)Cc3nnnn3CCN3CCOCC3)cc2c1 > 76.9 µM
COC(=O)c1cc2ccsc2n1Cc1cc(=O)n2ccccc2n1
CCOc1cc(C(=O)N(C)Cc2cc3cc(OC)ccc3[nH]c2=O)cc(OCC)c1OCC > 76.9 µM
COCCN(CCOC)S(=O)(=O)c1ccc(C(=O)Nc2nc(C)c(C(C)=O)s2)cc1 > 76.9 µM
COc1ccc(CC(=O)Nc2ccc(-c3nnc(-c4ccc(C)cc4)o3)cc2)cc1 > 76.9 µM
Cc1cc(C(=O)OCC(=O)N2c3ccccc3CC2C)c(C)o1 (configuration not stated) > 76.9 µM
Cc1ccc2cc3c(NC(=O)c4ccco4)nn(C)c3nc2c1 > 76.9 µM
Cc1ccc(-c2nn(C)c(=O)c3ccccc23)cc1CNS(C)(=O)=O > 76.9 µM
COC(=O)CSc1cc(SCC(=O)OC)c(C#N)c(SCC(=O)OC)c1 > 76.9 µM
CCOC(=O)c1snc(C(=O)NC2CCCCC2)c1N > 76.9 µM
CCOC(=O)Nc1cccc2ccccc12 > 76.9 µM
